Experimental data from patent publication US20250375475A1 (priority 2024, published 2025).

System: CD86+ circulating phagocytes
Conditions: FIG. 4; Aβ1-40 rat models of Alzheimer's disease

With ^64Zn L-Aspartate as the substance, how does the “relative number of CD86+ circulating phagocytes / CD86 expression” value read?
Its value is “reduced CD86 expression”.
